Consider 110 sequences from PMC6212790.

The other results are listed elsewhere or left out. At the low end of the ranking the order means little.

This assay has as its target T1, GST-Rok-C97-191 (UniProt O34857).
T1 sequence: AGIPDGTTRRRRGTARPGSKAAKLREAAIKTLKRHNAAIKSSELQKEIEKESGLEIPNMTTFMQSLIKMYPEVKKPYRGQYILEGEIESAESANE
The assay can be described thus: protein binding microarray.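 Note: rank score from −0.5 (least bound) to 0.5 (best bound).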 The settings on record: Rok is a gene silencer of Bacillus subtilis; high values mean tight binding; most listed sequences are background and not binding sites; double strand, one strand shown.
Consider ATTGATTA, for which the binding signal came to 0.0927 E-score.
Then ATGAACCA, with 0.0625 E-score.
Next, ATATAAAG: 0.135 E-score.
Next, GTCAAAGA: -0.117 E-score; CGGCCAAG: -0.0871 E-score; AGTCGAAG: -0.131 E-score.
GGAAGTGA displayed a binding signal of -0.218 E-score.
Next, GACTTTCC: -0.0014 E-score.
Next, CTCGTAAG: 0.0442 E-score; TGGACCCA: -0.261 E-score.
Then ATGCCCAT, with -0.129 E-score; and CGCAATTA, with 0.109 E-score; and ACCCAAAC, with -0.0226 E-score.
On to GCTCTCAC, for which the binding signal is -0.256 E-score.
Take ACAGACTG: the binding signal is -0.188 E-score.
Sequence AACCCTTA yielded a binding signal of -0.0957 E-score.
Then AGATTTAT, with 0.275 E-score; and AAAATGAA, with 0.0348 E-score; and CAGCGAGA, with -0.18 E-score.
The sequence TATAGTAA gave a binding signal of 0.346 E-score.
Sequence ACAATAAG returned a binding signal of 0.0445 E-score.
Then TGGTGACA, with 0.0101 E-score; and CAGCTTGG, with -0.301 E-score.
Regarding AAAGCAAA, the binding signal turned out to be 0.0518 E-score.
Consider AAGGGTGA, for which the binding signal is -0.318 E-score.
Next, CAACGGGC: -0.244 E-score.
CATACAGC yielded a binding signal of -0.208 E-score.
Then TTAAGTAA, with 0.0756 E-score; and AATTGTTA, with 0.234 E-score; and CTACCGCC, with 0.136 E-score.
In the case of GACCGCTC, the binding signal was -0.227 E-score.
AACGATGG yielded a binding signal of 0.0144 E-score.
Next, TATCAATA: 0.331 E-score.
Sequence ATCAGTGC came in with a binding signal of -0.0896 E-score.
The sequence CCTGGAAA gave a binding signal of 0.000252 E-score.
ATCGGGAG yielded a binding signal of -0.07 E-score.
Then ATGTTAAA, with 0.276 E-score.
In turn, AGCCTTTG returned a binding signal of -0.191 E-score.
AAATACCG showed a binding signal of 0.37 E-score.
Then TTCGTAAA, with 0.212 E-score; and ATAACATA, with 0.264 E-score.
Next, ATATGGTG: 0.159 E-score; CATCCGGC: -0.262 E-score.
Next, CCGAGGCC: -0.171 E-score; GTAACTAC: 0.417 E-score; ATCCAGAG: -0.139 E-score.
GCGCAGAC: the binding signal is -0.152 E-score.
On to GTGCACTA, for which the binding signal was -0.0717 E-score.
GTGACAGA came in with a binding signal of -0.384 E-score.
Sequence CTGGAGGC showed a binding signal of -0.111 E-score.
Next, CATAAACA: -0.0659 E-score.
Regarding AAATCTCA, the binding signal was found to be 0.0952 E-score.
Then ATATACTA, with 0.436 E-score; and GAATATTA, with 0.2 E-score.
Then AAAAGGCT, with -0.129 E-score; and CTTGACGC, with -0.0839 E-score; and AGGCCAAG, with -0.176 E-score.
As to CCGAGGAA, the binding signal was -0.164 E-score.
Then CCTGACTC, with -0.324 E-score; and ATGTCCGG, with 0.202 E-score; and GTGCCCGA, with -0.0978 E-score.
Next, CAGGGCCG: -0.287 E-score; AGCATAAA: 0.179 E-score.
CCTGAATC displayed a binding signal of -0.0702 E-score.
Next, GAGGTCTA: 0.0111 E-score; ACCTGGAA: 0.0976 E-score.
AGTCAAAT came in with a binding signal of -0.0556 E-score.
Sequence ATTGTGTG registered a binding signal of 0.0693 E-score.
Then GAAATAAA, with 0.176 E-score; and ATGCTACA, with 0.256 E-score.
In the case of ATAGCTGC, the binding signal amounted to 0.0753 E-score.
Next, CAATAGAC: -0.104 E-score.
In the case of GCTCTACC, the binding signal stood at 0.0141 E-score.
As for ACATGTGG, the binding signal worked out at 0.0717 E-score.
Next, TAAGCTAA: 0.101 E-score.
The sequence CGTGGCAG returned a binding signal of -0.258 E-score.
Next, GGTCGTAC: 0.0516 E-score.
TAGTGAGA came in with a binding signal of 0.103 E-score.
In turn, ATCTTAAA gave a binding signal of 0.164 E-score.
As to ATTGTGGA, the binding signal is -0.0175 E-score.
Consider CAACACCC, for which the binding signal is -0.102 E-score.
On to ATTAAAAA, for which the binding signal is 0.0424 E-score.
Next, GAAGCTCC: -0.178 E-score.
Then ATCTGGTC, with 0.0789 E-score; and ACGGTCTG, with -0.0561 E-score.
Consider CTACGTTC, for which the binding signal was 0.0573 E-score.
Then GATGCGAA, with -0.0687 E-score; and AAAAGGAC, with -0.208 E-score; and CGACGTAA, with 0.109 E-score.
For the sequence AACGTCTT, the binding signal is -0.219 E-score.
Next, GTACTAGA: 0.221 E-score; CATCGCGG: -0.205 E-score; CGTAGCGA: 0.052 E-score.
On to TATTCTCA, for which the binding signal is 0.136 E-score.
Next, AACGCCGG: -0.211 E-score.
Then CTCAGATA, with -0.0638 E-score; and ATAGTCGC, with -0.0126 E-score.
Next, GCGGGGGA: -0.179 E-score.
Sequence TCGGTTCA displayed a binding signal of -0.175 E-score.
In turn, CTATAGAC gave a binding signal of 0.0974 E-score.
Then AGGTAATG, with 0.113 E-score; and GGGTGCAA, with 0.0496 E-score.
CTAGTCTC gave a binding signal of -0.00792 E-score.
In the case of CCACGCAC, the binding signal was -0.103 E-score.
Then ACAACAAT, with 0.217 E-score; and GCACGACC, with -0.0572 E-score; and ACCATACC, with 0.0865 E-score.
In turn, ATACGAGC gave a binding signal of 0.0328 E-score.
Then ACTTACAG, with -0.0858 E-score.
CTGCATCA gave a binding signal of -0.145 E-score.
